Data as given in the supplement of paper PMC4967469.
The IC50 comes from the fitted curve, where viability falls to half of the control; a limit (>, <) means that the fit lies beyond the doses tested. AUC sums up the same curve from the lowest dose to the 256-fold higher top dose: 1 means no effect, lower means more sensitive. For some assays here: Where the top dose is marked as inferred, it was calculated from the reported fits.

Experiments:
Test in all cases: Viability of human cancer cell lines after 72 h of drug (GDSC screen)
Bosutinib = compound: COc1cc(Nc2c(C#N)cnc3cc(OCCCN4CCN(C)CC4)c(OC)cc23)c(Cl)cc1Cl [Bosutinib]; details: top dose 2 µM
Description: (§1)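 Human cancer cell lines in 384-well plates, medium with 10% serum, drug for 72 h over a 256-fold dose range (nine 2-fold or five 4-fold steps up to the top dose). Adherent lines were fixed and stained with the nucleic acid dye Syto60, suspension lines read with resazurin; signal relative to control wells, capped at 0 and 100%. One two-parameter sigmoid per drug and line, fitted in a mixed model over all curves with the slope shared within a line.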

Roscovitine = compound: CC[C@H](CO)Nc1nc(NCc2ccccc2)c2ncn(C(C)C)c2n1 [Roscovitine]; details: top dose 16 µM; top dose inferred
Description: as §1

IOX2 = compound: O=C(O)CNC(=O)c1c(O)c2ccccc2n(Cc2ccccc2)c1=O [IOX2]; details: top dose 0.1 µM; top dose inferred
Description: as §1

Midostaurin = compound: CO[C@@H]1[C@H](N(C)C(=O)c2ccccc2)C[C@H]2O[C@]1(C)n1c3ccccc3c3c4c(c5c6ccccc6n2c5c31)C(=O)NC4 [Midostaurin]; details: top dose 0.512 µM; top dose inferred
Description: as §1

Mitomycin C = compound: CO[C@@]12[C@H](COC(N)=O)C3=C(C(=O)C(C)=C(N)C3=O)N1C[C@@H]1N[C@@H]12 [Mitomycin C]; details: top dose 16 µM
Description: as §1

NVP-BHG712 = compound: Cc1ccc(C(=O)Nc2cccc(C(F)(F)F)c2)cc1Nc1nc(-c2cccnc2)nc2c1cnn2C [NVP-BHG712]; details: top dose 10.24 µM; top dose inferred
Description: as §1

Cell Line | AUC (Bosutinib) | IC50 (Bosutinib) [nM] | AUC (Roscovitine) | IC50 (Roscovitine) [µM] | AUC (IOX2) | IC50 (IOX2) [nM] | AUC (Midostaurin) | IC50 (Midostaurin) [nM] | AUC (Mitomycin C) | IC50 (Mitomycin C) [nM] | AUC (NVP-BHG712) | IC50 (NVP-BHG712) [µM]
TE-12 (oesophagus, suspension) | 0.806 | 1290 | 0.932 | > 16 | 0.98 | > 100 | 0.881 | > 512 | 0.26 | 175 | 0.947 | > 10.2
WSU-NHL (lymphoid neoplasm, suspension) | 0.803 | 851 | 0.987 | > 16 | 0.99 | > 100 | 0.881 | 425 | 0.257 | 224 | 0.705 | 2.23
NB69 (neuroblastoma, adherent) | 0.989 | > 2000 | 0.989 | > 16 | 0.948 | > 100 | 0.693 | 104 | 0.234 | 189 | 0.779 | 3.69
U-698-M (B-cell leukaemia, suspension) | 0.931 | > 2000 | 0.968 | > 16 | 0.986 | > 100 | 0.986 | > 512 | 0.57 | 1560 | 0.838 | 6.95
BE2-M17 (neuroblastoma, adherent) | 0.987 | > 2000 | 0.91 | > 16 | 0.986 | > 100 | 0.987 | > 512 | 0.614 | 2080 | 0.952 | > 10.2
KNS-81-FD (glioma, adherent) | 0.956 | > 2000 | 0.93 | > 16 | 0.972 | > 100 | 0.932 | > 512 | 0.573 | 1710 | 0.967 | > 10.2
KARPAS-299 (anaplastic large cell lymphoma, suspension) | 0.876 | 1430 | 0.888 | 12.7 | 0.984 | > 100 | 0.992 | > 512 | 0.56 | – | 0.895 | 8.72
SUP-HD1 (Hodgkin lymphoma, suspension) | 0.965 | > 2000 | 0.797 | 7.16 | 0.987 | > 100 | 0.941 | > 512 | 0.366 | 436 | 0.782 | 4.08
OCI-AML2 (acute myeloid leukaemia, suspension) | 0.97 | > 2000 | 0.926 | 14.2 | 0.995 | > 100 | 0.892 | 338 | 0.034 | < 62.5 | 0.138 | 0.0763
L-363 (myeloma, suspension) | 0.875 | 1510 | 0.983 | > 16 | 0.99 | > 100 | 0.97 | > 512 | 0.434 | 679 | 0.953 | > 10.2
RPMI-8866 (chronic myeloid leukaemia, suspension) | 0.627 | 273 | 0.986 | > 16 | 0.987 | > 100 | 0.988 | > 512 | 0.558 | 1420 | 0.792 | 4.27
VCaP (prostate, adherent) | 0.987 | > 2000 | 0.95 | > 16 | 0.985 | > 100 | 0.927 | > 512 | 0.594 | 1830 | 0.917 | > 10.2
KE-37 (lymphoblastic leukaemia, suspension) | 0.653 | 298 | 0.968 | > 16 | 0.994 | > 100 | 0.839 | 237 | 0.03 | < 62.5 | 0.813 | 3.97
MFM-223 (breast, adherent) | 0.955 | > 2000 | 0.987 | > 16 | 0.988 | > 100 | 0.989 | > 512 | 0.699 | 3590 | 0.945 | > 10.2
NEC8 (testis, adherent) | 0.991 | > 2000 | 0.942 | > 16 | 0.991 | > 100 | 0.961 | > 512 | 0.223 | 184 | 0.921 | > 10.2
KCL-22 (chronic myeloid leukaemia, suspension) | 0.864 | 1310 | 0.909 | > 16 | 0.984 | > 100 | 0.976 | > 512 | 0.468 | 829 | 0.226 | 0.121
HA7-RCC (kidney, adherent) | 0.947 | > 2000 | 0.938 | > 16 | 0.983 | > 100 | 0.853 | 468 | 0.133 | < 62.5 | 0.822 | 6.77
